# From the supplement of paper PMC7125110
# ± gives the standard error. This sample is rich in variants without activity.
# B1: glmS ribozyme (parent)
# chain: AUAAAAGCGCCAGAACUACAGAAAUGUAGUUGACGAGGAGGAGGUUUAUCGAAUUUUCGGCGGAUGCCUCCAAA
# Assays:
# Conditions in all cases: with glucosamine-6-phosphate
# glucosamine-6-phosphate [1] = variants of: B1; test: self-cleavage kobs at 40 uM GlcN6P; higher = faster cleavage; RNA array
# How it was run: (§1)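 Tiles of sequenced MiSeq chips were imaged over ~14 h at 37 °C. On them, barcoded ribozyme variants had been transcribed in situ by E. coli RNA polymerase and were tracked via a hybridised Cy3 probe while glucosamine-6-phosphate (40 μM to 10 mM) in HEPES/KCl/Mg(OAc)2 buffer flowed in. Per-tile medians, normalised to baseline and to non-cleaving reference variants, were fit to one- or two-exponential decays for kobs, and weighted Michaelis–Menten fits gave kcat and KM.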
# glucosamine-6-phosphate [2] = variants of: B1; test: self-cleavage kobs at 640 uM GlcN6P; higher = faster cleavage; RNA array
# How it was run: as §1
# glucosamine-6-phosphate [3] = variants of: B1; test: self-cleavage kobs at 160 uM GlcN6P; higher = faster cleavage; RNA array
# How it was run: as §1
# glucosamine-6-phosphate [4] = variants of: B1; test: self-cleavage kobs at 2500 uM GlcN6P; higher = faster cleavage; RNA array
# How it was run: as §1
# glucosamine-6-phosphate [5] = variants of: B1; test: self-cleavage kobs at 10000 uM GlcN6P; higher = faster cleavage; RNA array
# How it was run: as §1
Variant,self-cleavage kobs at 40 uM GlcN6P (glucosamine-6-phosphate [1]) [s⁻¹],self-cleavage kobs at 640 uM GlcN6P (glucosamine-6-phosphate [2]) [s⁻¹],self-cleavage kobs at 160 uM GlcN6P (glucosamine-6-phosphate [3]) [s⁻¹],self-cleavage kobs at 2500 uM GlcN6P (glucosamine-6-phosphate [4]) [s⁻¹],self-cleavage kobs at 10000 uM GlcN6P (glucosamine-6-phosphate [5]) [s⁻¹]
C10U U45C,< 1e-05,< 1e-05,< 1e-05,< 1e-05,< 1e-05
C10U U46A U49A U65C C68G,< 1e-05,,,,< 1e-05
C10U U46C,< 1e-05,< 1e-05,< 1e-05,< 1e-05,
C10U U54A U57C,< 1e-05,,,,
C10U U55A C70U,< 1e-05,,< 1e-05,,
C10U U57G,< 1e-05,,,,
C11A A12G U30C,< 1e-05,,,,
C11A A12U A52U,< 1e-05,,,,
C11A A15C U47C,< 1e-05,,,,
C11A A33C,< 1e-05,,< 1e-05,,
C11A A36C G38C,< 1e-05,,,,
C11A A39G A52U C67U,< 1e-05,< 1e-05,,< 1e-05,
C11A A42G,< 1e-05,,,,
C11A A64C,< 1e-05,< 1e-05,< 1e-05,< 1e-05,< 1e-05
C11A C16G U54A C68A,6.79e-05 ± 2.4e-05,,,,
C11A C34G G43C G51U G60C,< 1e-05,< 1e-05,,,
C11A C34U,< 1e-05,< 1e-05,,,
C11A G13A C16A G29C G41C G44C,< 1e-05,,,,
C11A G29A G35C A53G,< 1e-05,,,,< 1e-05
C11A G32U G62A G66U,< 1e-05,,,,< 1e-05
C11A G35U U56A,< 1e-05,,,,
C11A G37A G38U,< 1e-05,,,,< 1e-05
C11A G37C,< 1e-05,< 1e-05,,< 1e-05,
C11A G38U,< 1e-05,< 1e-05,< 1e-05,< 1e-05,< 1e-05
C11A G40C,< 1e-05,,< 1e-05,,
C11A G41U,< 1e-05,< 1e-05,< 1e-05,< 1e-05,

Variant,self-cleavage kobs at 40 uM GlcN6P (glucosamine-6-phosphate [1]) [s⁻¹],self-cleavage kobs at 640 uM GlcN6P (glucosamine-6-phosphate [2]) [s⁻¹],self-cleavage kobs at 160 uM GlcN6P (glucosamine-6-phosphate [3]) [s⁻¹],self-cleavage kobs at 2500 uM GlcN6P (glucosamine-6-phosphate [4]) [s⁻¹],self-cleavage kobs at 10000 uM GlcN6P (glucosamine-6-phosphate [5]) [s⁻¹]
C11A G43A,< 1e-05,< 1e-05,< 1e-05,< 1e-05,
C11A G44C C68G,< 1e-05,,,,< 1e-05
C11A G44U C68A U69A,< 1e-05,< 1e-05,,< 1e-05,< 1e-05
C11A G51A,< 1e-05,< 1e-05,,,< 1e-05
C11A G51C,< 1e-05,,,,< 1e-05
C11A G59A G60A A64U,< 1e-05,,,,
C11A G59U,0.000273 ± 2.8e-05,,,,
C11A U31A G37U U56G,< 1e-05,,,< 1e-05,
C11A U31C G40U A42G U65C,< 1e-05,,,,
C11A U65A,< 1e-05,< 1e-05,< 1e-05,,
C11A U65C,< 1e-05,< 1e-05,,< 1e-05,
C11G A12C G13C C61U,< 1e-05,,,,
C11G A12C G38A,< 1e-05,,,,
C11G A12C G43U G44A A48C,< 1e-05,,,,< 1e-05
C11G A12G U45A U47C,< 1e-05,,,,
C11G A14G G32A A48G U56G A64G,< 1e-05,,,,< 1e-05
C11G A14G G63U C70A,9.38e-05 ± 2.9e-05,,,,
C11G A14U,< 1e-05,,< 1e-05,,
C11G A15G A53C,< 1e-05,,,< 1e-05,
C11G A15U A48U,< 1e-05,,,,
C11G A15U C34G A39U A48G,< 1e-05,,,,
C11G A36U,< 1e-05,< 1e-05,,,< 1e-05
C11G A39G,< 1e-05,< 1e-05,< 1e-05,< 1e-05,
C11G A39U C50G,< 1e-05,< 1e-05,< 1e-05,< 1e-05,< 1e-05
C11G A39U G60A,< 1e-05,,< 1e-05,,
C11G C16A,< 1e-05,< 1e-05,< 1e-05,< 1e-05,

Variant,self-cleavage kobs at 40 uM GlcN6P (glucosamine-6-phosphate [1]) [s⁻¹],self-cleavage kobs at 640 uM GlcN6P (glucosamine-6-phosphate [2]) [s⁻¹],self-cleavage kobs at 160 uM GlcN6P (glucosamine-6-phosphate [3]) [s⁻¹],self-cleavage kobs at 2500 uM GlcN6P (glucosamine-6-phosphate [4]) [s⁻¹],self-cleavage kobs at 10000 uM GlcN6P (glucosamine-6-phosphate [5]) [s⁻¹]
C11G C16G,< 1e-05,,< 1e-05,< 1e-05,< 1e-05
C11G C16U A33U A52G,< 1e-05,,,,
C11G C34G,< 1e-05,< 1e-05,< 1e-05,,< 1e-05
C11G C34U G51A A53C,< 1e-05,,,,< 1e-05
C11G C50A A52U G63A,< 1e-05,,,,< 1e-05
C11G C68U C70G,< 1e-05,,,,
C11G C70U,< 1e-05,,,,
C11G C71A,< 1e-05,,< 1e-05,,
C11G C71U,< 1e-05,,< 1e-05,,
C11G G13A G32U G38U G44A C67G,< 1e-05,,,,
C11G G13C U45G U47A,< 1e-05,,,< 1e-05,
C11G G13U,< 1e-05,< 1e-05,< 1e-05,< 1e-05,< 1e-05
C11G G13U G32A A36C A52U,< 1e-05,,,,
C11G G13U G41U,< 1e-05,,,,< 1e-05
C11G G29A,< 1e-05,,,,
C11G G29A G37U U57C C58U G60C,< 1e-05,,,,
C11G G32C,< 1e-05,< 1e-05,,< 1e-05,< 1e-05
C11G G35C,< 1e-05,< 1e-05,< 1e-05,,
C11G G35C G37C,< 1e-05,,< 1e-05,,
C11G G35U,< 1e-05,< 1e-05,< 1e-05,,< 1e-05
C11G G35U A36G G38C U55G,< 1e-05,< 1e-05,< 1e-05,< 1e-05,
C11G G37U,< 1e-05,,,< 1e-05,< 1e-05
C11G G38C G41A G44C U47G G66U C70U,< 1e-05,,,,
C11G G38U,< 1e-05,< 1e-05,< 1e-05,,< 1e-05
C11G G38U G63A,< 1e-05,,,< 1e-05,
C11G G40A,< 1e-05,< 1e-05,< 1e-05,,< 1e-05

Variant,self-cleavage kobs at 40 uM GlcN6P (glucosamine-6-phosphate [1]) [s⁻¹],self-cleavage kobs at 640 uM GlcN6P (glucosamine-6-phosphate [2]) [s⁻¹],self-cleavage kobs at 160 uM GlcN6P (glucosamine-6-phosphate [3]) [s⁻¹],self-cleavage kobs at 2500 uM GlcN6P (glucosamine-6-phosphate [4]) [s⁻¹],self-cleavage kobs at 10000 uM GlcN6P (glucosamine-6-phosphate [5]) [s⁻¹]
C11G G40A G43A,< 1e-05,,,,< 1e-05
C11G G40U,< 1e-05,< 1e-05,,< 1e-05,< 1e-05
C11G G40U A53G G62C C71G,< 1e-05,,,,
C11G G41U,< 1e-05,< 1e-05,< 1e-05,< 1e-05,< 1e-05
C11G G43C U57C G60A C68A,< 1e-05,,,,< 1e-05
C11G G44A A64C,< 1e-05,,,,< 1e-05
C11G G51C,< 1e-05,< 1e-05,< 1e-05,< 1e-05,
C11G G60U,< 1e-05,< 1e-05,< 1e-05,,< 1e-05
C11G G62U,< 1e-05,< 1e-05,,< 1e-05,< 1e-05
C11G U30G G40U A42U U57C,< 1e-05,,,,< 1e-05
C11G U49G C68A,< 1e-05,,,,< 1e-05
C11G U54C C70U,< 1e-05,,,,< 1e-05
C11G U56G A64U,< 1e-05,,< 1e-05,< 1e-05,
C11G U65A,< 1e-05,< 1e-05,,,< 1e-05
C11G U65C,< 1e-05,< 1e-05,< 1e-05,,< 1e-05
C11G U65G,< 1e-05,< 1e-05,,,< 1e-05
C11U A14C A33G A42U G60C,< 1e-05,,< 1e-05,< 1e-05,< 1e-05
C11U A14C U30C G41U A64U,< 1e-05,,,,< 1e-05
C11U A14G A52C G60U,< 1e-05,< 1e-05,< 1e-05,< 1e-05,
C11U A14G U31G G62A,< 1e-05,,,,< 1e-05
C11U A15C G51U C70A,6.91e-05 ± 1.9e-05,,,0.000111 ± 3.3e-05,5.08e-05 ± 2e-05
C11U A15G A36C G62C U65C U69G,< 1e-05,,,< 1e-05,
C11U A33G C61G,< 1e-05,,,,< 1e-05
